{"source": "the BET-seq Pho4 binding data (Le et al. 2018)", "note": "The other results are listed elsewhere or left out. Values were computed here from the reads of four pooled replicates and scatter widely.", "data": [{"target": "T1, Pho4 (S. cerevisiae) (UniProt P07270)", "T1 sequence": "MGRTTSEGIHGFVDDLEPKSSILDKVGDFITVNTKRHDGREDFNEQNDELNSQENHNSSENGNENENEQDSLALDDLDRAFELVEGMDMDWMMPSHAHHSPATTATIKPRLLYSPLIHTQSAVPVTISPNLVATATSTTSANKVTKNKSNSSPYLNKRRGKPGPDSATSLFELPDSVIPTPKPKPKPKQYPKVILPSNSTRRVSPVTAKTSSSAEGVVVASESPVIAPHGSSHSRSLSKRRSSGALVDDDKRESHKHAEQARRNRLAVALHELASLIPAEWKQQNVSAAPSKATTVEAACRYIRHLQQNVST", "assay": "relative binding free energy (BET-seq); higher = weaker binding", "conditions": "reference: library average", "units": {"relative binding free energy": "kcal/mol"}, "values": [{"sequence": "TTTAACACGTGTTGCT", "relative binding free energy": 0.02}, {"sequence": "TGGTGCACGTGGGCAC", "relative binding free energy": -0.23}, {"sequence": "TGTTGCACGTGTCTCT", "relative binding free energy": 0}, {"sequence": "ATGGGCACGTGTATTA", "relative binding free energy": -0.04}, {"sequence": "GTGGTCACGTGTGCAT", "relative binding free energy": 0.14}, {"sequence": "TCATGCACGTGGTTTG", "relative binding free energy": -0.16}, {"sequence": "ACTTTCACGTGTAGTT", "relative binding free energy": 0.19}, {"sequence": "AGAATCACGTGATGGT", "relative binding free energy": 0.17}, {"sequence": "TAGGACACGTGTAGAG", "relative binding free energy": 0.08}, {"sequence": "TAAGTCACGTGTGTTT", "relative binding free energy": 0.15}, {"sequence": "ATGTTCACGTGAATTC", "relative binding free energy": 0.44}, {"sequence": "GCGGGCACGTGTGGTT", "relative binding free energy": 0.01}, {"sequence": "GTGTTCACGTGATTCT", "relative binding free energy": 0.38}, {"sequence": "GTGTCCACGTGTTATT", "relative binding free energy": 0.06}, {"sequence": "TAATGCACGTGTGTGG", "relative binding free energy": -0.08}, {"sequence": "AATATCACGTGCTGTT", "relative binding free energy": 0.12}, {"sequence": "AGAATCACGTGAGATT", "relative binding free energy": 0.45}, {"sequence": "TGAATCACGTGTTTAA", "relative binding free energy": 0.16}, {"sequence": "GGTTGCACGTGCTGTG", "relative binding free energy": 0.06}, {"sequence": "TGTGACACGTGATAGT", "relative binding free energy": 0.29}, {"sequence": "TGGTACACGTGGTGTA", "relative binding free energy": -0.07}, {"sequence": "TGGTGCACGTGTACCG", "relative binding free energy": -0.04}, {"sequence": "AATGGCACGTGAGCGG", "relative binding free energy": 0.17}, {"sequence": "TGTTGCACGTGCTAGC", "relative binding free energy": 0}, {"sequence": "ATGTACACGTGGTCTG", "relative binding free energy": -0.15}, {"sequence": "TGGTACACGTGGGGAG", "relative binding free energy": -0.11}, {"sequence": "TGAGACACGTGTGAGG", "relative binding free energy": 0}, {"sequence": "AAAGGCACGTGGAAGG", "relative binding free energy": -0.1}, {"sequence": "TTTGACACGTGAAGAT", "relative binding free energy": 0.23}, {"sequence": "ATATGCACGTGGGCTT", "relative binding free energy": -0.22}, {"sequence": "GTAGGCACGTGAAGTT", "relative binding free energy": 0.23}, {"sequence": "ATGCACACGTGTGGAG", "relative binding free energy": 0.06}, {"sequence": "TCGGTCACGTGTGACG", "relative binding free energy": 0.3}, {"sequence": "TGGAGCACGTGTTATG", "relative binding free energy": -0.11}, {"sequence": "GTTATCACGTGAATGG", "relative binding free energy": 0.37}, {"sequence": "TCATACACGTGTTAGT", "relative binding free energy": -0.01}, {"sequence": "GTTAGCACGTGTGTTA", "relative binding free energy": 0.06}, {"sequence": "ATAGACACGTGTGTCT", "relative binding free energy": 0.07}, {"sequence": "GTTTTCACGTGGGCTA", "relative binding free energy": 0.19}, {"sequence": "GGGTTCACGTGATTGC", "relative binding free energy": 0.45}, {"sequence": "TAGGTCACGTGGGAGA", "relative binding free energy": 0.04}, {"sequence": "TGATACACGTGGGCGT", "relative binding free energy": -0.14}, {"sequence": "GTGGTCACGTGGGAGT", "relative binding free energy": 0.07}, {"sequence": "TTCAGCACGTGATGTA", "relative binding free energy": 0.08}, {"sequence": "TAATACACGTGTTGAT", "relative binding free energy": 0.13}, {"sequence": "GCTATCACGTGTGGTA", "relative binding free energy": 0.29}, {"sequence": "CAGGGCACGTGCGCGT", "relative binding free energy": -0.26}, {"sequence": "GGTGCCACGTGTTACT", "relative binding free energy": 0.12}, {"sequence": "AGGGGCACGTGACGGC", "relative binding free energy": -0.18}, {"sequence": "AAGGGCACGTGGTAAT", "relative binding free energy": -0.27}, {"sequence": "GGTTCCACGTGGGAGT", "relative binding free energy": -0.01}, {"sequence": "CGTAGCACGTGCGTGG", "relative binding free energy": -0.16}, {"sequence": "GTCTTCACGTGTCTGT", "relative binding free energy": 0.36}, {"sequence": "CGGGGCACGTGGTTTC", "relative binding free energy": -0.21}, {"sequence": "TTTTACACGTGGTAGC", "relative binding free energy": 0.19}, {"sequence": "TCTGCCACGTGTTGGG", "relative binding free energy": -0.06}, {"sequence": "GTGGGCACGTGCAAGT", "relative binding free energy": -0.1}, {"sequence": "AATGGCACGTGACGGC", "relative binding free energy": 0.21}, {"sequence": "GTCGTCACGTGTTGTT", "relative binding free energy": 0.19}, {"sequence": "CGGGGCACGTGTCTGT", "relative binding free energy": -0.05}, {"sequence": "GTTTTCACGTGTGAGA", "relative binding free energy": 0.36}, {"sequence": "CTTGTCACGTGAGTGG", "relative binding free energy": 0.22}, {"sequence": "ATTTACACGTGCGTGT", "relative binding free energy": -0.03}, {"sequence": "TGTGACACGTGACAGG", "relative binding free energy": 0.16}, {"sequence": "GAGGGCACGTGTCTTT", "relative binding free energy": -0.04}, {"sequence": "AATGTCACGTGCGGGG", "relative binding free energy": -0.06}, {"sequence": "ATGTACACGTGTACGG", "relative binding free energy": 0.04}, {"sequence": "TTACGCACGTGGGGTA", "relative binding free energy": -0.37}, {"sequence": "GGCGGCACGTGATAAG", "relative binding free energy": 0.23}, {"sequence": "CAAGGCACGTGTAGGT", "relative binding free energy": -0.05}, {"sequence": "TTGTCCACGTGGGGTA", "relative binding free energy": -0.18}, {"sequence": "CGGAACACGTGGAGTT", "relative binding free energy": 0.23}, {"sequence": "AAAGTCACGTGAGTGG", "relative binding free energy": 0.38}, {"sequence": "AATCGCACGTGAGTGA", "relative binding free energy": 0.26}, {"sequence": "CGTTGCACGTGGGTTC", "relative binding free energy": -0.18}, {"sequence": "GTCTGCACGTGTTTGG", "relative binding free energy": 0.18}, {"sequence": "GCTGTCACGTGTGAGG", "relative binding free energy": 0.21}, {"sequence": "AGGTACACGTGTGTGG", "relative binding free energy": 0.13}, {"sequence": "AATGACACGTGGGGTT", "relative binding free energy": -0.14}, {"sequence": "AAGTCCACGTGAGGAG", "relative binding free energy": 0.38}, {"sequence": "AGTACCACGTGGTGTA", "relative binding free energy": -0.23}, {"sequence": "GTTACCACGTGGGGCT", "relative binding free energy": -0.13}, {"sequence": "GCGGCCACGTGGGGGC", "relative binding free energy": -0.2}, {"sequence": "GGGGTCACGTGATGTA", "relative binding free energy": 0.19}, {"sequence": "AAGTGCACGTGATAAG", "relative binding free energy": 0.08}, {"sequence": "GTAGTCACGTGGTGTA", "relative binding free energy": 0.06}, {"sequence": "TTGATCACGTGCCGTT", "relative binding free energy": 0.12}, {"sequence": "TCGTACACGTGTTTGT", "relative binding free energy": 0.04}, {"sequence": "GTAGGCACGTGCCTGG", "relative binding free energy": -0.18}, {"sequence": "GCGTTCACGTGGTGCG", "relative binding free energy": 0.29}, {"sequence": "TCTTGCACGTGGAGGG", "relative binding free energy": -0.04}, {"sequence": "TTGGGCACGTGTAGTC", "relative binding free energy": 0.02}, {"sequence": "TAATTCACGTGGGAGC", "relative binding free energy": 0.2}, {"sequence": "ATGGGCACGTGCTGCT", "relative binding free energy": -0.25}, {"sequence": "TGAATCACGTGTGGCG", "relative binding free energy": 0.23}, {"sequence": "GTGGGCACGTGATAGA", "relative binding free energy": 0.13}, {"sequence": "TGTGCCACGTGCTTGG", "relative binding free energy": -0.22}, {"sequence": "TTAGCCACGTGAGTTT", "relative binding free energy": 0.16}, {"sequence": "GTAGTCACGTGTATCT", "relative binding free energy": 0}, {"sequence": "CTAATCACGTGGGGTT", "relative binding free energy": 0.04}, {"sequence": "ATGGACACGTGTAGCG", "relative binding free energy": -0.01}, {"sequence": "AGGTCCACGTGCAGGT", "relative binding free energy": -0.14}, {"sequence": "GATTGCACGTGTAGAG", "relative binding free energy": 0.04}, {"sequence": "AAAAGCACGTGGGATT", "relative binding free energy": -0.04}, {"sequence": "CCGTGCACGTGGGTGG", "relative binding free energy": -0.15}, {"sequence": "AGGAGCACGTGGGTTG", "relative binding free energy": -0.21}, {"sequence": "AGTTTCACGTGGTGAA", "relative binding free energy": 0.27}, {"sequence": "TGTCTCACGTGTGCTG", "relative binding free energy": 0.11}, {"sequence": "TAAGGCACGTGGATCG", "relative binding free energy": -0.17}, {"sequence": "GATGACACGTGTGTGG", "relative binding free energy": 0.22}, {"sequence": "GACGGCACGTGTGAAG", "relative binding free energy": 0.15}, {"sequence": "GGCTGCACGTGTAGGT", "relative binding free energy": 0.06}, {"sequence": "TTTGTCACGTGTGTTT", "relative binding free energy": 0.21}, {"sequence": "TGCAGCACGTGGAGGC", "relative binding free energy": -0.16}, {"sequence": "GTTTTCACGTGCTTTA", "relative binding free energy": 0.3}]}]}
